# According to publication PMC4336329 (PLoS ONE, 2015):
# Out of some 310,000 compounds screened, about 14,000 (4.5%) showed an effect of 50% or more. Effects have a minus sign here. The list shows a part of the results.
# Molecular target: human ether-à-go-go-related gene (hERG) potassium channel (human, UniProt Q12809)
# Test: primary screen, population patch clamp on CHO cells stably expressing hERG
# 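Further: peak tail current of the secondary pulse compared with the same well before compound.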
# human ether-à-go-go-related gene (hERG) potassium channel, sequence (Q12809 whole entry, looked up): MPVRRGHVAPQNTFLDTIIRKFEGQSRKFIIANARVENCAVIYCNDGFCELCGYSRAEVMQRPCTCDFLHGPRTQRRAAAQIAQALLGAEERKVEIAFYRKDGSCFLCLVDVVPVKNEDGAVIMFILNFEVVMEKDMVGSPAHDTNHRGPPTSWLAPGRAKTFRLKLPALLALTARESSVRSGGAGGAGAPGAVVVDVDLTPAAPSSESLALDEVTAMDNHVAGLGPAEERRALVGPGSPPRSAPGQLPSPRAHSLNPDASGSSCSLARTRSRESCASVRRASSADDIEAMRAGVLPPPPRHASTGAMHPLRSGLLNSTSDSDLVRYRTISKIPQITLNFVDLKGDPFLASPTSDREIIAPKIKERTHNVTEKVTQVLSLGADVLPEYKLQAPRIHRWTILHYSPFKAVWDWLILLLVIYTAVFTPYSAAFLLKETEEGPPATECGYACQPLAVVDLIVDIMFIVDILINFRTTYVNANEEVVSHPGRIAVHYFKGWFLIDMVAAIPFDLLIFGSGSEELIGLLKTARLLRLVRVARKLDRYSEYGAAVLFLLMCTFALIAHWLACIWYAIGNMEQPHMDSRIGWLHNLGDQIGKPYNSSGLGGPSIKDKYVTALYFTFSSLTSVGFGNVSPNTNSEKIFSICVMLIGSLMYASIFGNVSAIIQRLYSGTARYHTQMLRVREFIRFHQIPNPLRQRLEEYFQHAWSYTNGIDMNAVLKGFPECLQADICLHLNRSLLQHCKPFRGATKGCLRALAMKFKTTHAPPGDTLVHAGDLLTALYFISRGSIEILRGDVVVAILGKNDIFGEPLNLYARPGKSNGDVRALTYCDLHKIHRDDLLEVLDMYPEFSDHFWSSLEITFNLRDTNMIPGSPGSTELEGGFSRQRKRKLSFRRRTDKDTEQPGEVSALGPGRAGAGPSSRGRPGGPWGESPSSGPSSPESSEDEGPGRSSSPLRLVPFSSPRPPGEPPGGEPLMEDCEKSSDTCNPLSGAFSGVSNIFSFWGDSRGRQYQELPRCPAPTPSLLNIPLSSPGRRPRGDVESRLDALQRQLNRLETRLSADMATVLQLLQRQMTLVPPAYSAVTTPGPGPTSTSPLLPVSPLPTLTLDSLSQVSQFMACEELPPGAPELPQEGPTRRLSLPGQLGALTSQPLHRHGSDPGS
row,SMILES,"hERG current change (%, negative = inhibition) at 10uM [%]"
1,O=C(CSc1nc(-c2ccc(F)cc2)cs1)NC(=O)NCc1ccco1,-13
2,Cc1c(C(=O)NNC(=O)Nc2ccc([N+](=O)[O-])cc2)oc2ccccc12,1.35
3,CCCNC(=O)Cc1ccsc1,9.93
4,CC(=O)N1c2ccc(S(=O)(=O)NCC3CCC(C(=O)Nc4cccc(C)n4)CC3)cc2CC1C (centres unmarked),-17.3
5,Cc1ccccc1-n1c(SCC(=O)Nc2ccc3c(c2)OCO3)nnc1-c1ccccn1,-65.3
6,CCOc1ccc(NC(=S)N2CCC(NC(=O)c3ccccc3)CC2)cc1,1.49
7,CC1(C)CC(NC(=O)c2ccccc2F)CC(C)(C)N1,1.84
8,CCN1C(=NCCOC)N[C@@H](c2cccs2)C(C(=O)OC)=C1C,-5.96
9,CCOC(=O)Cc1c(C)nc2cc(C)nn2c1C,0.264
10,COc1ccc(Cn2c(=O)[nH]c3cc(C(=O)NC4CCN(Cc5ccccc5)CC4)ccc32)cc1,-3.88
11,COc1cc(C(=S)N2CCOCC2)cc(OC)c1OS(=O)(=O)c1ccc(Cl)cc1,15.1
12,O=C(Nc1nc(-c2ccco2)c(-c2ccco2)s1)C1CCC1,-3.44
13,CCOC(=O)/C=C1/N(C)c2ccccc2C1(C)C,13.3
14,O=[N+]([O-])c1cc(/C=N/O)ccc1N1CCCC1,-10.9
15,COC(=O)c1ccccc1NC(=S)N(Cc1ccc2c(c1)OCO2)Cc1cc2ccc(C)cc2[nH]c1=O,15.1
16,CC1=C(C(N)=O)C(c2ccc(F)cc2)n2nc(CCCO)nc2N1 (centres unmarked),20.3
17,COc1ccc(N2C(=O)c3ccccc3NC23CCCC3)cc1,5.72
18,COc1ccc(C(=O)NC2CCSC2=O)cc1 (centres unmarked),-0.732
19,Cc1cccn2c(=O)c3cc(C(=O)N4COCC4(C)C)sc3nc12,0.269
20,CN(CC(=O)Nc1ccc(F)cc1)C(=O)c1cccc(S(=O)(=O)N2CCN(c3ccccc3)CC2)c1,-3.13
21,O=C(Oc1cc(-c2ccccc2)no1)c1cccc(C(F)(F)F)c1,19.3
22,O=C1c2ccccc2-c2ncnc3c(N4CCOCC4)cc(N4CCOCC4)c1c23,-60

row,SMILES,"hERG current change (%, negative = inhibition) at 10uM [%]"
1,CC(C)c1ccc(CCNC(=O)CSC(=S)N2CCCC2)cc1,0.382
2,COCCNc1ccc(N2C(=O)C3CCCCC3C2=O)cc1[N+](=O)[O-] (centres unmarked),0.289
3,O=C(N/N=C/c1ccccn1)c1cc(C2CC2)[nH]n1,7.51
4,Cc1ccc(S(=O)(=O)N(C)c2ccc(C(=O)N(CC(C)C)C3CCS(=O)(=O)C3)cc2)cc1 (centres unmarked),-14.6
5,COc1ccc([N+](=O)[O-])cc1N(CC(O)CN(C)C)S(=O)(=O)c1ccccc1 (centres unmarked),5.54
6,CCCCC(=O)Nc1nnc(/C=C/c2ccc(OC)cc2)s1,4.22
7,CCCCn1nnc(NC(=O)CCC)n1,-2.04
8,O=C(CCc1nc2ccccc2c(=O)[nH]1)NCC(=O)Nc1ccc(F)c(F)c1,-7.59
9,Cc1cc(C)cc(N(C(=O)c2csnn2)C(C(=O)NC(C)(C)C)c2cccnc2)c1 (centres unmarked),-20.5
10,CC(=O)c1c(N2CCN(c3ccc(F)cc3)CC2)nc(=S)n(Cc2ccccc2)c1C,-41.7
11,O=C(NCc1ccccc1Cl)c1ccc2c(=O)n(CC3CCCO3)c(=S)[nH]c2c1 (centres unmarked),10.1
12,CN(CCOc1ccc(-c2ccn(S(=O)(=O)c3c(Cl)cccc3Cl)n2)cc1)c1ccccn1,12.3
13,Cc1ccc(N(CC(=O)NC(C)C)C(=O)CCC(=O)Nc2nccs2)cc1C,-3.19
14,CC1CCCCC12NC(=O)N(CC(=O)N1CCN(c3ncccn3)CC1)C2=O (centres unmarked),11.2
15,O=C(C[n+]1ccccc1)N/N=C/c1ccccc1C(F)(F)F.[Cl-],11.3
16,O=C(Cn1cnc2c(cnn2-c2ccccc2)c1=O)c1ccc(Cl)cc1,-8.8
17,CC1(C)CC(=O)C2(CC3=C(CC(C)(C)CC3=O)O2)C(=O)C1,-10.6
18,O=C(CNC(=O)c1ccc(Cl)cc1Cl)OCC(=O)N1CCCC1,-3.73
19,COc1ccc(CC/C(=N\O)C2(O)CCCCC2)cc1,6
20,CCN(CC(=O)Nc1ccccc1OC)C(=O)c1ccc(NS(=O)(=O)c2ccc(C(C)=O)cc2)cc1,0.13
21,COc1cc(/C=C2/SC(=O)N(Cc3ccccc3Cl)C2=O)ccc1OCc1ccncc1,6.3
22,O=C(Nn1cnc2ccccc2c1=O)c1ccccc1F,1.78
